The target of assay [1] is T1, GsiA fused to a GFP fragment (pC-gsiA, pMRBAD-link-CGFP) (E. coli) (UniProt P75796).
T1 sequence: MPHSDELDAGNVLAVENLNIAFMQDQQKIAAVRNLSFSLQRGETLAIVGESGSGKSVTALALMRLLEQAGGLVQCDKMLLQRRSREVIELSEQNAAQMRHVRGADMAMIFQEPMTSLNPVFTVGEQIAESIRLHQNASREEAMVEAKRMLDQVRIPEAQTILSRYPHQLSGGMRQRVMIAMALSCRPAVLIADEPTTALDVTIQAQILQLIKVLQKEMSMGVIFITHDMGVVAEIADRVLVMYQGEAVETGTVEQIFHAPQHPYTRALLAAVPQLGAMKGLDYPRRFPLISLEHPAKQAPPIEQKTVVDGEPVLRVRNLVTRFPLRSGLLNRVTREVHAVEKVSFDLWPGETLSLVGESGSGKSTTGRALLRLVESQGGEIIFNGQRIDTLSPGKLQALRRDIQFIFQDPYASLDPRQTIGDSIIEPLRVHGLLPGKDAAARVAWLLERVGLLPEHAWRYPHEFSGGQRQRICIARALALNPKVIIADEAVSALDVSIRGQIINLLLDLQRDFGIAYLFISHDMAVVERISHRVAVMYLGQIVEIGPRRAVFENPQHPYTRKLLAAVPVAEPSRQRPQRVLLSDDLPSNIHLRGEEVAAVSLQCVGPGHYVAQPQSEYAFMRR
Nature of the assay: split reporter; GFP fragments reassembly in E. coli BL21(DE3); M9 medium plate with MgSO4 replaced by MgCl2 and reduced glutathione (1 mM) as only sulfur source; fluorescence under UV light.

Assay [2] addresses T2, GsiC fused to a GFP fragment (pC-gsiC, pMRBAD-link-CGFP) (E. coli) (UniProt P75798).
T2 sequence: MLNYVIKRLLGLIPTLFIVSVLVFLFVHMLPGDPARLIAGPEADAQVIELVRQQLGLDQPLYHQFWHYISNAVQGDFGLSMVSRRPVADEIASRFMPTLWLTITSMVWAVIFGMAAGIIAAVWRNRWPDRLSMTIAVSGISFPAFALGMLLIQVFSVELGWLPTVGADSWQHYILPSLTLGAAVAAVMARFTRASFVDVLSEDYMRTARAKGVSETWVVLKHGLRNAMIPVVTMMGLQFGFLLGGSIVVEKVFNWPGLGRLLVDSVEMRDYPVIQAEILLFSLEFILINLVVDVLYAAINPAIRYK
The description is as above.

The target of assay [3] is T3, GsiD fused to a GFP fragment (pC-gsiD, pMRBAD-link-CGFP) (E. coli) (UniProt P75799).
T3 sequence: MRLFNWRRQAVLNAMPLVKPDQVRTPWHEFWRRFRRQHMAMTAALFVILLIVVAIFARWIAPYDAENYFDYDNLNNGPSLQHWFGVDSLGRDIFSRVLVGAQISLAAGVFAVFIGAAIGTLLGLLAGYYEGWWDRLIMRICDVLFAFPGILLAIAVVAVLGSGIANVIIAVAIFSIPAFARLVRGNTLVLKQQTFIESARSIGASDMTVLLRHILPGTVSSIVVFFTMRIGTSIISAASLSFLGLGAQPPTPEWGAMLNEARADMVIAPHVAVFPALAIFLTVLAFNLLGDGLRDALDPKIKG
Described as above.

Assay [4] addresses T1, GsiA fused to a GFP fragment (pC-gsiA, pMRBAD-link-CGFP) (E. coli). Nature of the assay: split reporter; GFP fragments reassembly in E. coli BL21(DE3) co-transformed with pET11a-link-NGFP and pMRBAD-link-CGFP constructs; LB plate (no glutathione added), 0.2% arabinose and 10 uM IPTG, 20°C for 2 days; fluorescence under UV light.
Assay [5] concerns the target T2, GsiC fused to a GFP fragment (pC-gsiC, pMRBAD-link-CGFP) (E. coli). Described as above.
The target in assay [6] is T3, GsiD fused to a GFP fragment (pC-gsiD, pMRBAD-link-CGFP) (E. coli). Described as above.

No constants are given. Whether binding was seen depends on the method and setting. In cells and extracts the contact can be indirect. Some binding calls cover weakened binding; strength is not graded here. Tags and fused reporters may be left off the sequences shown.

B1: GsiB fused to a GFP fragment (pN-gsiB, pET11a-link-NGFP) (protein, UniProt P75797 27-512)
chain: AKDVVVAVGSNFTTLDPYDANDTLSQAVAKSFYQGLFGLDKEMKLKNVLAESYTVSDDGITYTVKLREGIKFQDGTDFNAAAVKANLDRASDPANHLKRYNLYKNIAKTEAIDPTTVKITLKQPFSAFINILAHPATAMISPAALEKYGKEIGFYPVGTGPYELDTWNQTDFVKVKKFAGYWQPGLPKLDSITWRPVADNNTRAAMLQTGEAQFAFPIPYEQATLLEKNKNIELMASPSIMQRYISMNVTQKPFDNPKVREALNYAINRPALVKVAFAGYATPATGVVPPSIAYAQSYKPWPYDPVKARELLKEAGYPNGFSTTLWSSHNHSTAQKVLQFTQQQLAQVGIKAQVTAMDAGQRAAEVEGKGQKESGVRMFYTGWSASTGEADWALSPLFASQNWPPTLFNTAFYSNKQVDDFLAQALKTNDPAEKTRLYKAAQDIIWQESPWIPLVVEKLVSAHSKNLTGFWIMPDTGFSFEDADLQ
For B1, the binding result in assay [1] was “no binding”; in assay [2] it was “binds”; in assay [3], “binds”; in assay [4], “no binding”; in assay [5] it was “no binding (condition: on LB plate, without glutathione)”; in assay [6] it was “no binding (condition: on LB plate, without glutathione)”.

The values above are taken from PMC6236770.
